Hit rate of the full screen: of about 45,000 compounds, about 65 (0.1%) were called active. Calls come from the whole dose curve; as a rule, active = well fitted activation curve with a large enough effect; inconclusive = small, poorly fitted or top-dose-only effect; inactive = no such curve, though single readings can be large or run the other way. The list shows a part of the results.
Target: Galactocerebrosidase (Homo sapiens) (UniProt P54803)
Experiment: A Novel Cell-Based Assay to Identify Small Molecules for B -Galactocerebrosidase; note: 0% is about no effect; nearly all actives have a fitted effect of over 65% in size
Conditions: 145M-Twi-hGALC-G270D cells (Twitcher mouse brain line with human GALC G270D), HMU-beta-Gal fluorescence, 48 h; series mostly up to 57.5 µM; activation: at the top concentration
Method in brief: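 Brain-derived Twitcher mouse 145M-Twi cells stably expressing human GALC-G270D or wild-type GALC, treated live, then residual GALC activity read by fluorescence of HMU-b-Gal substrate (0.1 mM final) in citrate-phosphate buffer pH 5.2 with sodium taurocholate. Signal increase indicates enhancement.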

Chain of UniProt P54803 (P54803 whole entry, looked up): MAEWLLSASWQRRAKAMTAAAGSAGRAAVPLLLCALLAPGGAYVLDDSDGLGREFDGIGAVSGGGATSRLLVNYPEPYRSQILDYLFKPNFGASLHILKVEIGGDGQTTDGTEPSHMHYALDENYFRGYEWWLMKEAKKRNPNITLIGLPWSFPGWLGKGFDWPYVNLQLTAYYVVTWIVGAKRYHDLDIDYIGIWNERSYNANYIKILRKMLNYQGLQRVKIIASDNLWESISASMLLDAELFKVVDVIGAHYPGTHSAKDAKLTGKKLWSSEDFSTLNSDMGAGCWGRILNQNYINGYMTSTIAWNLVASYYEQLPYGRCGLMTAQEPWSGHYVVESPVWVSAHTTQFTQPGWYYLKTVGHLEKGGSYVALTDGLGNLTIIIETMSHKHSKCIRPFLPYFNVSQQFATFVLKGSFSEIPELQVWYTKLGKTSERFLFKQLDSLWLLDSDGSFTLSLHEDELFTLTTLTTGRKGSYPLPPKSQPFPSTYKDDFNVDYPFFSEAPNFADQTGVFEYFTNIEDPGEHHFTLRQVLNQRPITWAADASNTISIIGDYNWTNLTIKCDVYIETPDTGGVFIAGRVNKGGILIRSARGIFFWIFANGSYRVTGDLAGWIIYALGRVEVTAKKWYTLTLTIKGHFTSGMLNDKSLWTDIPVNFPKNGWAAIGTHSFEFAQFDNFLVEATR

| SMILES | activation |
| --- | --- |
| CCOc1ccc(S(=O)(=O)c2cn(CC)c3ccc(F)cc3c2=O)cc1 | inactive: -15.2% |
| COc1ccc(N(CC(=O)N2CCc3ccccc3C2)S(=O)(=O)c2ccccc2)cc1 | inactive: -18.3% |
| CCc1cccc(NC(=O)CSc2nnc(-c3cc4occc4n3C)n2-c2ccccc2C)c1 | inactive: -10.3% |
| COc1cccc(-n2c(=O)c3sc4ccccc4c3n(Cc3c(F)cccc3Cl)c2=O)c1 | inactive: -5.86% |
| Cc1ccc(-n2nc(CO)c(C(=O)NCCC(C)C)n2)cc1C | inactive: -10.6% |
| O=c1n(Cc2ccc(F)cc2)c2ccccc2c2nc(-c3ccccc3)nn12 | inactive: -1.47% |
| Cc1ccc(CNC(=O)c2ccc(Cn3c(SCc4ccc(F)cc4)nc4cccnc43)cc2)o1 | inactive: -8.97% |
| CSc1ccc(CCNC(=O)Cn2c(C)c3cnn(-c4ccccc4)c(=O)c3c2C)cc1 | inactive: -17.5% |
| CCCN(C(=O)CCc1nc(-c2ccc(C)cc2)no1)c1ccc(OCC)cc1 | inactive: 0.995% |
| Cc1ccc(N2C(=O)C(CC(=O)Nc3cccc(F)c3)N(CCc3ccccc3F)C2=O)cc1 (stereo not given) | inactive: -33.8% |
| CCOC(=O)c1c(C)oc2nc(C)nc(NCC3CCN(Cc4cc(C)ccc4C)CC3)c12 | inactive: -14.4% |
| Cc1ccc(Sc2ccc(N3CCCC(C(=O)Nc4ccc(F)cc4)C3)nn2)cc1 (stereo not given) | inactive: 1.99% |
| O=C(Cn1nc(N2CCN(c3ccccc3)CC2)ccc1=O)NCc1ccccc1F | inactive: 0.554% |
| CCN(CC)C(=O)CSc1nc2cc3c(cc2c(=O)n1CCCC(=O)NCc1ccc2c(c1)OCO2)OCO3 | inactive: 1.5% |
| COc1ccc(-c2cn3c(n2)sc2cc(C(=O)NCCCc4ccccc4)ccc23)cc1 | inactive: -12.1% |
| COc1cccc2c1cc1c(=O)n(CC(=O)N3CCN(c4ccc(F)cc4)CC3)nc(C)n12 | inactive: -4% |
| CCCS(=O)(=O)c1nc(S(=O)(=O)c2ccc(C)cc2)c(NCCCOC(C)C)s1 | inactive: 3.41% |
| COc1ccc2nc(SCC(O)c3cccc(Br)c3)[nH]c2c1 (stereo not given) | inactive: -9.66% |
| Cn1c(=O)c2c(nc(NCCc3ccccc3)n2Cc2ccccc2Br)n(C)c1=O | inactive: -4.33% |
| CCOc1ccc(C(=O)N(Cc2nc(-c3cccc(C)c3)no2)C(C)C)cc1 | inactive: -37.8% |
| Cc1cccc(C(=O)Nc2ccccc2OCc2cc(=O)n3ccccc3n2)c1 | inactive: 10% |
| CCOc1ccc(NC(=O)c2cn(C3CCCCC3)c(=O)c3c2c2ccccc2n3C)cc1 | inactive: -23.7% |
| Cc1ccc(-c2nnc(SCC(=O)NC(C)(C)C)nc2-c2ccc(C)cc2)cc1 | inactive: -4.52% |
| CC(=O)OCC(=O)[C@@]1(O)[C@H](OC(C)=O)C[C@H]2[C@@H]3CCC4=CC(=O)C=C[C@]4(C)[C@@]3(F)[C@@H](O)C[C@@]21C | inactive: -16.8% |
| CCOc1ccc(CNC(=O)CCCn2c(=O)c3cccn3c3ccccc32)cc1 | inactive: -18.8% |

Reference: PubChem BioAssay AID1159614 (National Center for Advancing Translational Sciences (NCATS), 2016)
